Some of the results follow.
system: PF3D7_0420300 AP2 domain 1 (GST-tagged); test: gcPBM binding intensity (ln(normalized median fluorescence intensity)); higher = stronger DNA binding
In short: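 Binding of GST-tagged P. falciparum DNA-binding domains, expressed in E. coli and used at about 25 μg on average, was carried out for 1 h in 1× PBS containing 1% milk, 0.2 mg/ml BSA, 0.5% salmon testes DNA and 0.03% Triton X-100. The target was an Agilent 4 × 180k array of primer-extended double-stranded 36-bp intergenic genomic probes plus negative controls, read with Alexa488 anti-GST antibody at 488 nm. Binding intensity is the highest Masliner-normalised natural-log median intensity across replicate spots of either probe orientation.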

Row | Sequence | gcPBM binding intensity (ln)
1 | TATTTATATAGACACACACACATATATTTATATTTT [CACACA_site7240] | 10
2 | TTTACATTTAATAAAAGTACTTATTTCATATACATA [XGTACX_site659] | 9
3 | TAATTCTTTATAATAACACACATTCATATACAATAA [CACACA_site2499] | 9.34
4 | GGTATTACCTGTTTGTTATGTAGATGTTGCTAGGAT [GTGCAC_negctrl_site736] | 9.4
5 | ATACCAATAATATACATACACACATAAAGGTTTATA [CACACA_site314] | 9.75
6 | AAGAAAAACTAAAGAGTTCTGTTCATATCTCTTTGG [TGCATGCA_negctrl_site549] | 8.99
7 | TTTTACAATAACAATACACACTATAATATATATATA [CACACA_site4893] | 9.28
8 | TAGGAGCCGAAACACACACACAAAAAAAAAAAAAAA [CACACA_site1731] | 9.55
9 | CATATATATAAATACACACACACACCCCTTATAATT [CACACA_site4064] | 10.2
10 | AAAAGAATTTGAAGTCGTACAATATCTATTATATGA [XGTACX_site8275] | 9.03
11 | AAAAAATGGCTAGTTTGTACACAAAAGTTATTGCAT [XGTACX_site5381] | 9.25
12 | ATATAATATACTTATTGTACTTATTTAAAATACTAA [XGTACX_site4266] | 9.01
13 | AAAAAAAAATAAAAATGTACATATATAATATTATAT [XGTACX_site71] | 9.34
14 | AAGATAAAATTATGCACACATACGAATAATTTTAAA [CACACA_site1705] | 9.38
15 | TTTCTCAATTCTTAGAGTACATAAATAAAAAAAAAA [XGTACX_site7639] | 8.74
16 | ATCACTAACATGTGTTGTACATAAAATTTGTTTGTT [XGTACX_site2207] | 9.33
17 | AAAAAACAAAAACACACACACACATATATATATATA [CACACA_site3654] | 10.2
18 | TTATTATTTAACATGTGGACACAAAAATTTAAGGGT [XGTACX_site4638] | 9.29
19 | TTAACTTTTATATAGTGTACAAATAAATGCATACAG [XGTACX_site5958] | 9.12

Row | Sequence | gcPBM binding intensity (ln)
20 | TCTACTACTTAATGGAGTACTAGCTTCATAATATTA [XGTACX_site7030] | 8.97
21 | TGCAAATTTAACAAAAAAAAAAAAAAAAAAAAAAAA [GTGCAC_negctrl_site64] | 8.4
22 | TATTATGTATAAAGAAGTACTTTTTTTTTTTTTTTC [XGTACX_site201] | 8.8
23 | TGAACACAGACAAATACACACAAAAAAAATAAATAA [CACACA_site4298] | 9.79
24 | GATTATTTAAAATATACATGCGCGCACATATGCATA [TGCATGCA_site630] | 9.23
25 | TGCATTTTCCTATTTGCATGCAATTAAAATATAGAA [TGCATGCA_site862] | 8.96
26 | ATGTTTTAATGAGGTTTGCACTATATTTTAATGAAC | 9.33
27 | AACATATATACAGTAACACACACAAAAAAATATGAA [CACACA_site9323] | 10.1
28 | TCAAGTTTATATTAACTATTTATGAAAAAAAAAAGA [CACACA_negctrl_site902] | 8.82
29 | CTAAAAATTTTAATTGCACACCACGTTGGACTATTT [CACACA_site1489] | 9.24
30 | TTACACTAAATATGTTCACACATTTTTTCCATCATA [CACACA_site4647] | 9.31
31 | ATATATTACAAATGGAGTACTAAAAATATTCTATAT [XGTACX_site6669] | 9.35
32 | TATAAGGCAATAATAGTGCACTAAGATATATAATGA | 9.28
33 | CCCATGCATTTTTGCACACACATATATTTATAAATA [CACACA_site6785] | 9.58
34 | TATATATATGGGTTTACACACAATAATGAATTAAAA [CACACA_site915] | 9.56
35 | CCCACAGACGGACACACACACACATATATATATATA [CACACA_site4352] | 10.1
36 | ATAAAAATGGATGAATATAAAAAAAAAAAAATATAT [CACACA_negctrl_site182] | 9.3
37 | GAATATATAAGAACAAATATGGCTTAGAAAAAAAAA [TGCATGCA_negctrl_site451] | 9.16
38 | TACAAAAGTTAAACATGTACTTAATTATATGTTTTT [XGTACX_site2852] | 9.07

Row | Sequence | gcPBM binding intensity (ln)
39 | CTATTAAAAAAATTATGTACACAACGTCTCTATATA [XGTACX_site4813] | 9.17
40 | TACATTTTTATTTTTACACACATATATATATATATA [CACACA_site1021] | 9.66
41 | TATTATTTTATGAGACATAAAAAAAAAAAAAAAAAA [CACACA_negctrl_site1534] | 8.36
42 | TATAATATATTTATATGTACTTATTTATTTATATAT [XGTACX_site6519] | 9.27
43 | GAGTTTATTCTTTTTATACACACCTTATTTGATTAA [CACACA_site735] | 9.57
44 | TTAAGTATTTTACGTACACACTTATAAATGTACAGG [CACACA_site6012] | 9.26
45 | AAGTATTATTATAAGACACACATGTATATAAGTATA [CACACA_site1479] | 9.45
46 | TCTTTATATATATATATATGTGTGAATGTTAAGTAT [XGTACX_negctrl_site135] | 9.24
47 | AAATTGTCTGCATATAGTACATAAATATATTAATAT [XGTACX_site4557] | 9.15
48 | ATATATATATATATAGTGCATAATGTTTTAATAGAT | 9.33
49 | AAGAAAATAAAATAAAAAAAAAAATAAAAAAAATAA [TGCATGCA_negctrl_site516] | 9.26
50 | AACATTTTTAAATATATAAAAATATATATATATATA [XGTACX_negctrl_site551] | 8.97
51 | TTATATTTATGATACACACACGTATATTCACATACA [CACACA_site6354] | 9.7
52 | TTTTAAAGCATATCATATAAAGAACATGACATAGGA [CACACA_negctrl_site630] | 9.22
53 | GTATGTTTAATTTTAGTGCAATTATAAATATTTTAA [GTGCAC_site9531] | 9.18
54 | TTGCCATTAATTTATACACACACATTTTAATTTTTT [CACACA_site8150] | 9.89
55 | TTGTCATTTATAAAATGTACGTGTGTATATATTTAA [XGTACX_site5000] | 9.27
56 | TCAATAGTTACTAGTACATGCAAAAATAAACCTATA [TGCATGCA_site85] | 9.34
57 | CAAATATATATGTTCACACATATAATTATTGTGAAA [CACACA_site4190] | 9.13

From the supplement of paper PMC11417369
